# Source: the supplement of paper PMC4894684
# Where a name gives a salt, the structure may show the parent alone. ± gives the standard deviation of the averaged measurements. Out of some 1,000 compounds screened, about 15 (2%) showed an effect of 50% or more. The list shows a part of the results.
# System: HFF
# Assay: uninfected host cell viability relative to vehicle control; higher = less host cell toxicity
# Conditions: 5 µM; 72 h; oxygen 21 %
# 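Also: confluent HFF monolayers, run in parallel with the Toxoplasma growth screen as a host toxicity counterscreen.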
row,SMILES,uninfected host cell viability
1,N[C@H](C(=O)O)c1ccc(O)c(C(=O)O)c1 [(S)-3-Carboxy-4-hydroxyphenylglycine],83.1 ± 0.11%
2,COc1ccc(CN2C(=O)C(=O)c3cc(OC(F)(F)F)ccc32)cc1,87.9 ± 3.1%
3,COc1cccc(/C=N/N=C/c2cccc(OC)c2)c1,83.58 ± 0.31%
4,C[C@@H](NCc1cc(Br)cc2[nH]c(=O)c(=O)[nH]c12)P(=O)(O)O,88.3 ± 3.9%
5,O/N=C/c1ccc(-c2ccc(O)c(F)c2)c(Cl)c1O,91.86 ± 0.49%
6,COc1cc(C(=O)OCCCN2CCCN(CCCOC(=O)c3cc(OC)c(OC)c(OC)c3)CC2)cc(OC)c1OC [Dilazep dihydrochloride],98.9 ± 5.1%
7,CCCCC/N=c1\ccn(Cc2ccccc2)c2ccccc12,83.1 ± 2.5%
8,CN1c2cc3c(cc2N=C(c2ccc(C(=O)O)cc2)c2ccccc21)C(C)(C)CCC3(C)C,100 ± 8.6%
9,COc1nccc(-c2c(-c3ccc(F)cc3)ncn2C2CCC(O)CC2)n1 (configuration not stated),93.53 ± 0.38%
10,"OCCNCCCOc1cccc(Cl)c1Cl [2,3-DCPE hydrochloride]",81.7 ± 3.9%
11,C[N+]1(C)CCC(OC(=O)C(c2ccccc2)c2ccccc2)CC1,100.2 ± 0.87%
12,O=C1C=CC(=O)C2=C1C1c3ccccc3C2c2ccccc21,88.5 ± 4.6%
13,O=C(O)c1c(Sc2ccccc2)c2cc(Cl)ccc2n1Cc1ccc(Cl)cc1,93.9 ± 8.2%
14,CCCCOc1cc(CC2CNC(=O)N2)ccc1OC (configuration not stated),87 ± 1.2%
15,CCOc1ccccc1OC(c1ccccc1)C1CNCCO1 (configuration not stated) [Reboxetine mesylate],97.2 ± 6.6%
16,O=S1(=O)c2cccc3cccc(c23)N1CCCN1CCN(c2ccc(F)cc2)CC1 [Fananserin],87.5 ± 3.8%
17,Nc1ncnc2c1ncn2C1CCCO1 (configuration not stated),98.1 ± 1.2%
18,CC1c2ccccc2CN1CC1=NCCN1 (configuration not stated),89 ± 2.3%
19,Cn1cccc1/C=C1\C(=O)NC(=O)c2ccccc21,97 ± 1.7%
20,COc1cc2c(CCNC(C)=O)c[nH]c2cc1Cl [6-Chloromelatonin],89.6 ± 1.9%
21,CCCn1c(=O)[nH]c2nc(-c3ccc(S(=O)(=O)O)cc3)[nH]c2c1=O,86.34 ± 0.58%
22,CC(Cc1ccc(O)c(O)c1)(NN)C(=O)O [(S)-(-)-Carbidopa],86.5 ± 4.4%
23,CN(Cc1cnc2nc(N)nc(N)c2n1)c1ccc(C(=O)N[C@@H](CCC(=O)O)C(=O)O)cc1 [Methotrexate],90.6 ± 3.5%
24,CC(C)(Sc1ccc(CCN(CCCCC2CCCCC2)C(=O)NC2CCCCC2)cc1)C(=O)O,101 ± 1.1%
25,OC(CN1CCN(c2cccc(Cl)c2)CC1)C(c1ccccc1)c1ccccc1 (configuration not stated),90.1 ± 1.8%
26,CCCCNc1c(C(=O)OCC)c(C)nc2c1cnn2CC [Tracazolate hydrochloride],100.8 ± 1%
27,COc1cc(-c2ccc(=O)[nH]n2)ccc1OC(F)F [Zardaverine],90.7 ± 2.2%
